These are yes or no findings as the source states them, for the method shown. Binding seen in cells or lysates may run through a third protein. Some results given as binding are weak or reduced against the parent protein; the word gives no strength. Sequences can lack the tags named with a protein.
Molecular target: FLAG-tagged Tor2 kinase (S. pombe) (UniProt Q9Y7K2)
Test: co-IP; FLAG-Tor2 immunopurified from S. pombe cell lysate on anti-FLAG M2 affinity gel, 2 h at 4°C, washed with lysis buffer; co-purified Mip1-myc by immunoblot

Protein sequences, listed by entry. Tags and fused reporters are not part of them.
UniProt Q9Y7K2: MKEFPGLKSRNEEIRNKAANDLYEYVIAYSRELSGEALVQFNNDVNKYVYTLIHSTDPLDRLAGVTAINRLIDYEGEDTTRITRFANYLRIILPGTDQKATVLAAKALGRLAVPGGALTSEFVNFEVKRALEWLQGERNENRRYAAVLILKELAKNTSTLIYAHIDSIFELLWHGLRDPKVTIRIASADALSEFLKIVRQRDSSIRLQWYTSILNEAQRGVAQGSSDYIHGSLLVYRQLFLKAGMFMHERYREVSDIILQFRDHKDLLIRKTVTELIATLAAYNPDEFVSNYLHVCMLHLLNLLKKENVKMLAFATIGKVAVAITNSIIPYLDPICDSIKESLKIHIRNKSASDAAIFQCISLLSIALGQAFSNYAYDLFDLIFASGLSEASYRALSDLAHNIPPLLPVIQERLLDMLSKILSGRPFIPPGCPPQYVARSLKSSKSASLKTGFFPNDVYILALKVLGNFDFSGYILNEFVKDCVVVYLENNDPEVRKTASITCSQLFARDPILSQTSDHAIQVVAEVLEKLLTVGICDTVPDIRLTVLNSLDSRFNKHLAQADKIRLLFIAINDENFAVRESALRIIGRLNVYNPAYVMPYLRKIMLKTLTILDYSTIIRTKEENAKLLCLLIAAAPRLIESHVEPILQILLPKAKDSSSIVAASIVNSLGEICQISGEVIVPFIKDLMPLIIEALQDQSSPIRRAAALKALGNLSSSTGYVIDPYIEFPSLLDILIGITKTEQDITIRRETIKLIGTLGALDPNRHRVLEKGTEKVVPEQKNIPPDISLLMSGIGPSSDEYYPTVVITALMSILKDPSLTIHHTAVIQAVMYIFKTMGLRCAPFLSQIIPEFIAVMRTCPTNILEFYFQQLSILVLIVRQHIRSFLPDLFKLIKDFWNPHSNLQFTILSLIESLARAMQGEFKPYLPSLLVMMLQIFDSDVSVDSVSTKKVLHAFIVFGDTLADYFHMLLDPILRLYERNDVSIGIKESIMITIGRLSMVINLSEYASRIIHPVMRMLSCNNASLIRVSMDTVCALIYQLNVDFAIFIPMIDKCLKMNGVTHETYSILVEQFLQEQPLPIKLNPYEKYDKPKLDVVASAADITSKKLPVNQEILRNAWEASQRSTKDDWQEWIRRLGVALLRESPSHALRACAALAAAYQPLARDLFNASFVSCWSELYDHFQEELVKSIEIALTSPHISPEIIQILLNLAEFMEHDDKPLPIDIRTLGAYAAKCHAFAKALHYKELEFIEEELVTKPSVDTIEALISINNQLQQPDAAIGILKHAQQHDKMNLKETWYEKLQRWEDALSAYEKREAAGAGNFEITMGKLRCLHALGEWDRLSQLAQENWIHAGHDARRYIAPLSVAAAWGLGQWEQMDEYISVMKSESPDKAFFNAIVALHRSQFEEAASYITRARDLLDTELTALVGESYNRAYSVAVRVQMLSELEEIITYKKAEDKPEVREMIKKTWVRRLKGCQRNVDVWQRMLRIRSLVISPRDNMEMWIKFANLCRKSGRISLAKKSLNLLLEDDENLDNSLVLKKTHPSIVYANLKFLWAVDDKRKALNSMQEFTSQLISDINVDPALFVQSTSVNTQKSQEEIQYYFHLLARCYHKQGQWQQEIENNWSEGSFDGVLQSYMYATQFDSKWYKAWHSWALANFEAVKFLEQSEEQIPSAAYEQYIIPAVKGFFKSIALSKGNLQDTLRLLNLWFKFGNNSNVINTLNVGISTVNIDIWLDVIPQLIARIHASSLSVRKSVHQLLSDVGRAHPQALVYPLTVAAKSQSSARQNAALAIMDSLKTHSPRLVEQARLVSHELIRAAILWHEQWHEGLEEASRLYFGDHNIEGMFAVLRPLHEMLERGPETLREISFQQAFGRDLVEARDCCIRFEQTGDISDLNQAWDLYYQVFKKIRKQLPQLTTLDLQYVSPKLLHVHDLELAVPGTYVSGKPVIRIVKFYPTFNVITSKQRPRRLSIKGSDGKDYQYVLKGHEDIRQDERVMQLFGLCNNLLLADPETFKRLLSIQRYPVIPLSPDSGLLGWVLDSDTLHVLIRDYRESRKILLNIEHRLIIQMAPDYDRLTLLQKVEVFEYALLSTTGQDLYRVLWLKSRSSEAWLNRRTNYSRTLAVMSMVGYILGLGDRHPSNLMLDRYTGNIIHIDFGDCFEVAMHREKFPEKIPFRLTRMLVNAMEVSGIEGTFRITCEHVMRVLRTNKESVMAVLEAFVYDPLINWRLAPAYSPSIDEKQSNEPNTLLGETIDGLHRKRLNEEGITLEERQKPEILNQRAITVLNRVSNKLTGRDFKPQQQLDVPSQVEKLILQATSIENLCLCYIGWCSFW

B1: Mip1-myc (wild type) (protein, UniProt P87141 1-1313)
chain: MNDRISEVSGSSRARRSVLSYGTTETGSDRYTENSNIATENGVDTASSMIDGIQSGFPQPRHGFEEEYNNAEYINMLEQVFYMYYTDKRHRGVISKKNAEPTETIHDWRMRERLKTVSAALLVCLNIGVDPPDVIKPNPAAKYECWIDPFSLPASKALEAIGKNLQQQYETLSMRTRYRHYLDPAIEEVKKLCIGQRRNAKEERILFHYNGHGVPMPTASGEIWVFNKNYTQYIPVSLYDLQSWLGAPCIYVYDCSAAGNIIVNFNRFAEQRDKEALRIAKQNPNVLAMPSHTSCIQLAACGPKETLPMNPDLPADLFTSCLTSPIEISVRWYVLQNPFPNKLNLNMLLKIPGRLQDRRTPLGELNWIFTAITDTIAWNVFPKHLFRRLFRQDLMVAALFRNFLLAERIMLVHSCHPQSSPELPPTHDHPMWNSWDLAIDNCLSQLPDMLDAESKGIAYEYKHSTFFSEQLTAFEVWLSQGLISRKPPDQLPLVLQVLLSQVHRLRALILLSKFLDLGVWAVDLALSIGIFPYVLKLLQSPAIELKPVLVFIWARILAVDDSCQADLLKDNGYGYFVQILNPNSSIFPSSNISEHRAMCAFILSVFCRGFPQGQLACLNPQVLSHCLSHLNSPDSLLRQWACLCISQLWENYSEAKWSGTRDNAHVKLAEIIVDSVPEVRASVLTAFTTFLGFPEKTEEVVAVETYIAIAALAALSDASPLVRHELVIFLSHFVVNYKKQLMVVAYESSLADILEKKNHNSISASTIYETVWQAVLVLAADPSIEISLAAEAIINYVYQSMLNSELRESFLAFLLQHLPALHKASLSKDTDTNSVTSDPKPHPFVPSVSENKILNRSFSLTRSLKGLALSLAGSDRASELLSLNGENKPAESNLNHLTSAKVPGPPAFNELEYQSELDMPLTSYLFDWSRKYFTEPQMRPNEDDEPGSICYNQRLWRRNRNEKLIYRTRPLAEYSTNGRWNQQLMTFNNTIAPRKLMFHQFEDQLITLGDKDIIQVWDWRRNRCLNSFKTSASATTNVTDMQLLNEDDVALLMTGSSDGTIKLYRDYENEKVELVTSWNSLSDLVFGDRNASLLMSWQQNCGHLLVAGDVRVIRIWDASKEICYANLPVRSSNSITSLTSDLVGCNIIVAGFSDGVLRVYDKRLPARDSLTDVWKEHSSEIVNVEMQSSGMRELISASSDGEVKLWDIRMNHSLQTFSTDNSGLTSLTVHSHAPVYATGSSNQSIKIWDTLGQNINTFRENPRFLNQPKPSSLMCLKFHPHHLLLACGDNTDSRVNLYSCTKNEIHTDSPNEF
Question: How did the binding turn out when B1 was run?
Answer: binds

B2: Mip1-Y533A-myc (protein, UniProt P87141 1-1313)
chain: MNDRISEVSGSSRARRSVLSYGTTETGSDRYTENSNIATENGVDTASSMIDGIQSGFPQPRHGFEEEYNNAEYINMLEQVFYMYYTDKRHRGVISKKNAEPTETIHDWRMRERLKTVSAALLVCLNIGVDPPDVIKPNPAAKYECWIDPFSLPASKALEAIGKNLQQQYETLSMRTRYRHYLDPAIEEVKKLCIGQRRNAKEERILFHYNGHGVPMPTASGEIWVFNKNYTQYIPVSLYDLQSWLGAPCIYVYDCSAAGNIIVNFNRFAEQRDKEALRIAKQNPNVLAMPSHTSCIQLAACGPKETLPMNPDLPADLFTSCLTSPIEISVRWYVLQNPFPNKLNLNMLLKIPGRLQDRRTPLGELNWIFTAITDTIAWNVFPKHLFRRLFRQDLMVAALFRNFLLAERIMLVHSCHPQSSPELPPTHDHPMWNSWDLAIDNCLSQLPDMLDAESKGIAYEYKHSTFFSEQLTAFEVWLSQGLISRKPPDQLPLVLQVLLSQVHRLRALILLSKFLDLGVWAVDLALSIGIFPAVLKLLQSPAIELKPVLVFIWARILAVDDSCQADLLKDNGYGYFVQILNPNSSIFPSSNISEHRAMCAFILSVFCRGFPQGQLACLNPQVLSHCLSHLNSPDSLLRQWACLCISQLWENYSEAKWSGTRDNAHVKLAEIIVDSVPEVRASVLTAFTTFLGFPEKTEEVVAVETYIAIAALAALSDASPLVRHELVIFLSHFVVNYKKQLMVVAYESSLADILEKKNHNSISASTIYETVWQAVLVLAADPSIEISLAAEAIINYVYQSMLNSELRESFLAFLLQHLPALHKASLSKDTDTNSVTSDPKPHPFVPSVSENKILNRSFSLTRSLKGLALSLAGSDRASELLSLNGENKPAESNLNHLTSAKVPGPPAFNELEYQSELDMPLTSYLFDWSRKYFTEPQMRPNEDDEPGSICYNQRLWRRNRNEKLIYRTRPLAEYSTNGRWNQQLMTFNNTIAPRKLMFHQFEDQLITLGDKDIIQVWDWRRNRCLNSFKTSASATTNVTDMQLLNEDDVALLMTGSSDGTIKLYRDYENEKVELVTSWNSLSDLVFGDRNASLLMSWQQNCGHLLVAGDVRVIRIWDASKEICYANLPVRSSNSITSLTSDLVGCNIIVAGFSDGVLRVYDKRLPARDSLTDVWKEHSSEIVNVEMQSSGMRELISASSDGEVKLWDIRMNHSLQTFSTDNSGLTSLTVHSHAPVYATGSSNQSIKIWDTLGQNINTFRENPRFLNQPKPSSLMCLKFHPHHLLLACGDNTDSRVNLYSCTKNEIHTDSPNEF
Question: Which binding does the source give for B2 here?
Answer: binds

B3: Mip1-R504A-myc (protein, UniProt P87141 1-1313)
chain: MNDRISEVSGSSRARRSVLSYGTTETGSDRYTENSNIATENGVDTASSMIDGIQSGFPQPRHGFEEEYNNAEYINMLEQVFYMYYTDKRHRGVISKKNAEPTETIHDWRMRERLKTVSAALLVCLNIGVDPPDVIKPNPAAKYECWIDPFSLPASKALEAIGKNLQQQYETLSMRTRYRHYLDPAIEEVKKLCIGQRRNAKEERILFHYNGHGVPMPTASGEIWVFNKNYTQYIPVSLYDLQSWLGAPCIYVYDCSAAGNIIVNFNRFAEQRDKEALRIAKQNPNVLAMPSHTSCIQLAACGPKETLPMNPDLPADLFTSCLTSPIEISVRWYVLQNPFPNKLNLNMLLKIPGRLQDRRTPLGELNWIFTAITDTIAWNVFPKHLFRRLFRQDLMVAALFRNFLLAERIMLVHSCHPQSSPELPPTHDHPMWNSWDLAIDNCLSQLPDMLDAESKGIAYEYKHSTFFSEQLTAFEVWLSQGLISRKPPDQLPLVLQVLLSQVHALRALILLSKFLDLGVWAVDLALSIGIFPYVLKLLQSPAIELKPVLVFIWARILAVDDSCQADLLKDNGYGYFVQILNPNSSIFPSSNISEHRAMCAFILSVFCRGFPQGQLACLNPQVLSHCLSHLNSPDSLLRQWACLCISQLWENYSEAKWSGTRDNAHVKLAEIIVDSVPEVRASVLTAFTTFLGFPEKTEEVVAVETYIAIAALAALSDASPLVRHELVIFLSHFVVNYKKQLMVVAYESSLADILEKKNHNSISASTIYETVWQAVLVLAADPSIEISLAAEAIINYVYQSMLNSELRESFLAFLLQHLPALHKASLSKDTDTNSVTSDPKPHPFVPSVSENKILNRSFSLTRSLKGLALSLAGSDRASELLSLNGENKPAESNLNHLTSAKVPGPPAFNELEYQSELDMPLTSYLFDWSRKYFTEPQMRPNEDDEPGSICYNQRLWRRNRNEKLIYRTRPLAEYSTNGRWNQQLMTFNNTIAPRKLMFHQFEDQLITLGDKDIIQVWDWRRNRCLNSFKTSASATTNVTDMQLLNEDDVALLMTGSSDGTIKLYRDYENEKVELVTSWNSLSDLVFGDRNASLLMSWQQNCGHLLVAGDVRVIRIWDASKEICYANLPVRSSNSITSLTSDLVGCNIIVAGFSDGVLRVYDKRLPARDSLTDVWKEHSSEIVNVEMQSSGMRELISASSDGEVKLWDIRMNHSLQTFSTDNSGLTSLTVHSHAPVYATGSSNQSIKIWDTLGQNINTFRENPRFLNQPKPSSLMCLKFHPHHLLLACGDNTDSRVNLYSCTKNEIHTDSPNEF
Question: With B3 as the binder, how does the binding read?
Answer: binds

B4: Mip1-R358A-myc (protein, UniProt P87141 1-1313)
chain: MNDRISEVSGSSRARRSVLSYGTTETGSDRYTENSNIATENGVDTASSMIDGIQSGFPQPRHGFEEEYNNAEYINMLEQVFYMYYTDKRHRGVISKKNAEPTETIHDWRMRERLKTVSAALLVCLNIGVDPPDVIKPNPAAKYECWIDPFSLPASKALEAIGKNLQQQYETLSMRTRYRHYLDPAIEEVKKLCIGQRRNAKEERILFHYNGHGVPMPTASGEIWVFNKNYTQYIPVSLYDLQSWLGAPCIYVYDCSAAGNIIVNFNRFAEQRDKEALRIAKQNPNVLAMPSHTSCIQLAACGPKETLPMNPDLPADLFTSCLTSPIEISVRWYVLQNPFPNKLNLNMLLKIPGRLQDARTPLGELNWIFTAITDTIAWNVFPKHLFRRLFRQDLMVAALFRNFLLAERIMLVHSCHPQSSPELPPTHDHPMWNSWDLAIDNCLSQLPDMLDAESKGIAYEYKHSTFFSEQLTAFEVWLSQGLISRKPPDQLPLVLQVLLSQVHRLRALILLSKFLDLGVWAVDLALSIGIFPYVLKLLQSPAIELKPVLVFIWARILAVDDSCQADLLKDNGYGYFVQILNPNSSIFPSSNISEHRAMCAFILSVFCRGFPQGQLACLNPQVLSHCLSHLNSPDSLLRQWACLCISQLWENYSEAKWSGTRDNAHVKLAEIIVDSVPEVRASVLTAFTTFLGFPEKTEEVVAVETYIAIAALAALSDASPLVRHELVIFLSHFVVNYKKQLMVVAYESSLADILEKKNHNSISASTIYETVWQAVLVLAADPSIEISLAAEAIINYVYQSMLNSELRESFLAFLLQHLPALHKASLSKDTDTNSVTSDPKPHPFVPSVSENKILNRSFSLTRSLKGLALSLAGSDRASELLSLNGENKPAESNLNHLTSAKVPGPPAFNELEYQSELDMPLTSYLFDWSRKYFTEPQMRPNEDDEPGSICYNQRLWRRNRNEKLIYRTRPLAEYSTNGRWNQQLMTFNNTIAPRKLMFHQFEDQLITLGDKDIIQVWDWRRNRCLNSFKTSASATTNVTDMQLLNEDDVALLMTGSSDGTIKLYRDYENEKVELVTSWNSLSDLVFGDRNASLLMSWQQNCGHLLVAGDVRVIRIWDASKEICYANLPVRSSNSITSLTSDLVGCNIIVAGFSDGVLRVYDKRLPARDSLTDVWKEHSSEIVNVEMQSSGMRELISASSDGEVKLWDIRMNHSLQTFSTDNSGLTSLTVHSHAPVYATGSSNQSIKIWDTLGQNINTFRENPRFLNQPKPSSLMCLKFHPHHLLLACGDNTDSRVNLYSCTKNEIHTDSPNEF
Question: Which binding does the source give for B4 here?
Answer: binds

From publication PMC8542387 (2021)
